# Source: paper PMC6919601, “Identification of Plasmodium dipeptidyl aminopeptidase allosteric inhibitors by high throughput screening” (PLoS ONE, 2019)
# “And” between values parts separate entries of the source, which are not always exact repeats. Identical values can stand only once. Screen size: about 110,000 compounds; about 230 (0.21%) showed an effect of 50% or more. The list shows a part of the results.
# Biological target: DPAP1 (Plasmodium falciparum, UniProt Q8IIJ9)
# Assay: primary screen, percent inhibition; read by cleavage of a fluorogenic dipeptide substrate; higher = more effect of the substance
# Parameters: species or system P. falciparum D10 trophozoite lysates; single well
# 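Note: 30 min substrate incubation versus DMSO and 10 µM JCP410 controls.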
# Chain of DPAP1 (Q8IIJ9 whole entry, looked up): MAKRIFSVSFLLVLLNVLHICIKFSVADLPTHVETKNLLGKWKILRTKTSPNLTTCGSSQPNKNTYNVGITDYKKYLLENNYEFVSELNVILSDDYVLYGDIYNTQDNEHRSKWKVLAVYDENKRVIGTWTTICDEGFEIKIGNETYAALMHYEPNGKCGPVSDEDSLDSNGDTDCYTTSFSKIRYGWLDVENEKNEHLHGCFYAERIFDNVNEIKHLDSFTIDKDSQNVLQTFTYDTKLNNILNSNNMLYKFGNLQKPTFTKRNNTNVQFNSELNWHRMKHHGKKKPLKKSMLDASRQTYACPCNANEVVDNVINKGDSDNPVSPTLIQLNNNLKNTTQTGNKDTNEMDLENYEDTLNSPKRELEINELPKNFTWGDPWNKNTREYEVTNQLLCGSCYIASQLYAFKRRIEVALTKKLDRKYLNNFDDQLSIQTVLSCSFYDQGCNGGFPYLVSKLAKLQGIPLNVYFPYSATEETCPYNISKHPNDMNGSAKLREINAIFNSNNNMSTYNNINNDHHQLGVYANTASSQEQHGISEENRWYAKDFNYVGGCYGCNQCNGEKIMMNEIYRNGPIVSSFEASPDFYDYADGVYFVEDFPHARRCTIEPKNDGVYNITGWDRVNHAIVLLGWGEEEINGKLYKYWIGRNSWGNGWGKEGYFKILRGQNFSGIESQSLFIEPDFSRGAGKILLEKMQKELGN
row,SMILES,% Inhibition @ 10 uM
1,CC(C)n1cc(NC(=O)c2ccncc2)cn1,4.58%
2,CCC(O)=C1C(=O)N(C)C(=O)N(C)C1=O,2.56%
3,Cc1csc(NC(=O)c2cnn(-c3ccc(C)c(C)c3)c2C2CCN(C(=O)OC(C)(C)C)CC2)n1,0.711%
4,Cc1c(C)n2c3c(cc(NC(=O)c4ccccc4)cc13)CCC2,3.15%
5,Cc1c(C)c2cc(Cl)c3c(c2oc1=O)CN(Cc1ccccc1)CO3,-2.57%
6,COc1ccc(Br)cc1C(=O)Nc1ccc2c(c1)C(=O)N(C)C2=O,2.08%
7,COc1cccc(C(=O)Nc2cccc(C)n2)c1,-1.52%
8,COc1cccc(NC(=O)COc2ccc3oc4c(c3c2)CCCC4)c1,2.01%
9,CC(=N)Nc1sc2c(c1C#N)CCCC2,-6.99%
10,CCS(=O)(=O)C1=NSC2=NC(=O)/C(=C\c3cc(OC)c(OC)c(OC)c3)C(=N)N21,1.85%
11,CCCCCC(=O)N(CN1C(=O)c2ccccc2C1=O)c1ccccc1OC,4.28%
12,CCOc1ccccc1-n1c(C)cc(/C=C2\C(=N)N3N=C(S(C)(=O)=O)SC3=NC2=O)c1C,-1.54%
13,CC(C)C[C@H](NC(=O)N1CCN(C(=O)c2ccco2)CC1)C(=O)NCC#N,1.35%
14,Cc1ccc(C)c(N2CCN(C3CCC(c4ccccc4)CC3)CC2)c1 (centres unmarked),1.26%
15,COc1ccc(OC)c(CN2CCN(C(=O)c3ccccc3F)CC2)c1,-7.09%
16,O=C(Nc1ccc(-c2nc3cc(Cl)ccc3o2)c(O)c1)c1ccc2c(c1)OCCO2,-2.87% and 2.03%
17,Cc1cccc2sc(NC(=O)Cc3nn(C)c(=O)c4ccccc34)nc12,-0.458%
18,O=C1C2C3C=CC(C2C(=O)N1c1cccc(O)c1)C1C2C(=O)N(c4cccc(O)c4)C(=O)C2C31 (centres unmarked),-4.61%
19,N#CC1(NC(=O)[C@H](Cc2c(F)cccc2F)NC(=O)c2ccc(-c3ccccc3Cl)cc2)CCN(CC(F)(F)F)CC1,-3.48%
20,Cc1noc(C)c1S(=O)(=O)N1CCC(C)CC1,-6.29%
21,CC1CCC(c2ccc(O)cc2)(c2ccc(O)cc2)CC1,2.6%
22,O=C(O)/C=C/C(=O)Nc1ccc(N2CCOCC2)cc1,-1.25%
23,COc1ccc(C2CC(=O)c3cnc(NC(C)=O)nc3C2)cc1 (centres unmarked),-1.2%
24,CC(=O)O/N=C(/c1ccc(Cl)cc1Cl)N1CCCCC1,-4.24%
25,O=C1N(Cc2cccc3ccccc23)c2ccccc2C1(c1ccc(O)cc1)c1ccc(O)cc1,-1.77%
26,CC(=O)c1c(C)oc2ccc(NS(=O)(=O)c3ccc(Cl)cc3)cc12,-6.29%
